Experimental data reported in article PMC4336329 (PLoS ONE, 2015).
About 14,000 (4.5%) of roughly 310,000 compounds showed an effect of 50% or more. The effect is printed as a negative number. The list shows a part of the results.

target: human ether-à-go-go-related gene (hERG) potassium channel (human, UniProt Q12809); assay: primary screen, population patch clamp on CHO cells stably expressing hERG
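Also: peak tail current of the secondary pulse compared with the same well before compound.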

human ether-à-go-go-related gene (hERG) potassium channel, sequence (Q12809 whole entry, looked up): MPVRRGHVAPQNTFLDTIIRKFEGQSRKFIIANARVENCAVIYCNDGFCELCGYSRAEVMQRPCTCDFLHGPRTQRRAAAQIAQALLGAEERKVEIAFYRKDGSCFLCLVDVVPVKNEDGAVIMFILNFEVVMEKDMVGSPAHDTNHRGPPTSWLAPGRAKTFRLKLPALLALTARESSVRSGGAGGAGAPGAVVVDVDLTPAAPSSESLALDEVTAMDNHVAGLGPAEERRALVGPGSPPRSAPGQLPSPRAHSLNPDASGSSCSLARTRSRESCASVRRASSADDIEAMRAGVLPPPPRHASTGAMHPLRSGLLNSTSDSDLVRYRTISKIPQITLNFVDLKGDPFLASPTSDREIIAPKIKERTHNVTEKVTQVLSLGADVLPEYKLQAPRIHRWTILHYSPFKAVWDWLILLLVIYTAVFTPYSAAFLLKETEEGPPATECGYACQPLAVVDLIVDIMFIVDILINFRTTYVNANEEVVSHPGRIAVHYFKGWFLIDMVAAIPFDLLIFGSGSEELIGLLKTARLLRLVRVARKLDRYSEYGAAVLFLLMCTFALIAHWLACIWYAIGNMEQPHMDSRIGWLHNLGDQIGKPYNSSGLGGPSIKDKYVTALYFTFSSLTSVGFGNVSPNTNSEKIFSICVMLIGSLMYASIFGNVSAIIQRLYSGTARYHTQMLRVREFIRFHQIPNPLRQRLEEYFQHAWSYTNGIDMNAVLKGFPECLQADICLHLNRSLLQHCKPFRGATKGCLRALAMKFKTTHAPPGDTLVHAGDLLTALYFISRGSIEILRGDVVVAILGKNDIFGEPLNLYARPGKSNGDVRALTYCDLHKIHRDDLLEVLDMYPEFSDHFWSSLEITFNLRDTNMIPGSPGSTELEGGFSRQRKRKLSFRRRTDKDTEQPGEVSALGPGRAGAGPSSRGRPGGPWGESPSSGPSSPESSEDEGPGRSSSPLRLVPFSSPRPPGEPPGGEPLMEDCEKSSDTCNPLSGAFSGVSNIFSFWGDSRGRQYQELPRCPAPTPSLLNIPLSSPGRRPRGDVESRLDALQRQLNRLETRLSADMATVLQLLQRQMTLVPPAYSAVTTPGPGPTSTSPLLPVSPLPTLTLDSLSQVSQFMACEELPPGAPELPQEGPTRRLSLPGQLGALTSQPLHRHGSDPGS

SMILES | hERG current change (%, negative = inhibition) at 10uM [%]
CCc1nc(SCC(=O)N2CCc3cc(OC)c(OC)cc3C2)c(C#N)cc1C | -27.2
CCCSc1cc(=O)n(-c2ccccc2)nc1C(=O)OCC | -8.04
COCCn1c(N)c(Sc2ccc([N+](=O)[O-])cc2)c(=O)[nH]c1=O | -46.5
CCN(CC)S(=O)(=O)c1cccc(C(=O)N[C@H](C(=O)Nc2nc3ccccc3s2)C(C)C)c1 | -0.123
CC(C)(C)OC(=O)Nc1ncnc2c1ncn2C1OC(CO)C2OC(C)(C)OC21 (stereo not drawn) | 12.9
Cc1nc(CCNC(=O)CC2C(=O)NCCN2Cc2ccoc2)nc2c1CCCC2 (stereo not drawn) | -36.7
O=c1c2ccsc2ncn1Cc1cccc(C(F)(F)F)c1 | -15.9
Cn1cc(CN2CCC(n3nccc3NC(=O)CCOc3ccccc3)CC2)cn1 | 17.1
O=C(Cc1c(F)cccc1Cl)NNC(=O)c1ccccc1Cl | -0.796
C/C(=N/NC(=O)Cc1cccc2ccccc12)c1cccs1 | 6.33
C=CCN1CCN(C(=O)CSc2ccccc2)CC1 | 10.5
O=C(CN(Cc1ccccc1)C(=O)c1ccco1)NCc1ccc(F)cc1 | -31.6
O=C(c1cccc(NS(=O)(=O)c2ccc(F)c(F)c2)c1)N1CCN(Cc2ccccc2)CC1 | -26.8
COc1ccc(CNC(=O)c2ccc(-c3ccccc3)cc2)cc1 | 16
COc1ccc(C(=O)Nn2c(C)nc3ccccc3c2=O)cc1Br | -7.54
CS(=O)CCC(NS(=O)(=O)c1ccccc1)C(=O)O (stereo not drawn) | 20.4
Cc1cccc(C)c1NS(=O)(=O)c1cc2c3c(c1)CC(=O)N3CCC2 | -12.2
COc1ccccc1C1C(C(=O)c2cc3ccccc3o2)=C(O)C(=O)N1c1cc(C)on1 (stereo not drawn) | 16.9
O=C1COc2ccc(S(=O)(=O)NCCc3ccccc3)cc2N1 | 10.7
Cc1cccc(CSc2nnc(-c3ccccn3)n2N)c1 | 2.88
COc1ccc2c(c1)[C@H]1[C@H](CO2)[C@H](c2ccccc2)[C@]2(C)C(=O)Nc3cc(Cl)ccc3C(=O)N12 | -15

SMILES | hERG current change (%, negative = inhibition) at 10uM [%]
CCCOc1ccc(Cn2ccnc2)cc1[N+](=O)[O-] | -52.3
COC(=O)c1ccc(CN2C(=O)NC3(CCCCC3)C2=O)cc1 | 11.2
O=c1c2c3c(sc2nc(N2CCNCC2)n1CCc1ccccc1)CCCCC3 | -0.343
COc1ccc(C2/C=C\CNCC(=O)N2Cc2ccc(F)cc2)cc1 (stereo not drawn) | -0.0236
Cc1cc(C)cc(NC(=O)N2CCN(C/C=C/c3ccccc3)CC2)c1 | -69
CC(=O)N(CCCNC(=O)c1ccccc1)C(=O)c1ccccc1 | 7.46
COC(=O)CSc1ccc2nnc(-c3ccc(OC)c(OC)c3)n2n1 | -26.4
COCCNC(=O)CN(C(=O)Cn1nnc2ccccc21)c1ccccc1C | 22.5
COc1ccc(C(=O)Nc2cc(C)ccc2NC(=O)COc2ccccc2)cc1 | 4.16
Cl.OC(COCC1COc2ccccc2O1)CN1CCN(c2ccccc2F)CC1 (stereo not drawn) | -58.9
COC(=O)[C@@]1(Cc2ccc(OC)cc2)[C@@H]2C(=CC(=O)[C@H]2CC(=O)C(=O)N(C)C)CN1C(=O)c1ccccc1 | -35.9
O=C(N/N=C/c1ccncc1)c1cccc(NC(=O)c2ccccc2Cl)c1 | -2.33
O=C(Nc1ccc(-c2cc3ccccc3oc2=O)c(Cl)c1)c1cccnc1 | 2.92
CCCCC1CCC(c2nc(-c3ccccn3)no2)CC1 (stereo not drawn) | -11.2
COc1ccc(S(=O)(=O)N(C)c2ccc(C(=O)Nc3cccnc3)cc2)cc1OC | 9.44
N/C(=N\OCc1ccc([N+](=O)[O-])cc1)c1ccncc1 | -17.6
O=C(c1ccc(Cl)cc1)C1CCCN(Cc2cccn2-c2cccnc2)C1 (stereo not drawn) | -42
CC1CC(C)(C)NC(=S)N1CCC(=O)NCc1ccc(Cl)cc1 (stereo not drawn) | -15.2
Cc1cc(N)n(-c2ncnc3scc(-c4ccc(Cl)cc4)c23)n1 | 2.62
O=C(/C=C/c1ccc(O)c(O)c1)OC1C(O)CC(OC(=O)/C=C/c2ccc(O)c(O)c2)(C(=O)O)CC1O (stereo not drawn) | 11.1
CC(=O)OCC#CCSc1nc2ccccc2n1C | 8.56

SMILES | hERG current change (%, negative = inhibition) at 10uM [%]
CCOCCc1c(O)[nH]c(=S)[nH]c1=O | 11.4
COc1ccc(/C=N/Nc2nncc3ccccc23)cc1 | -3.41
CC(C)(C)n1nc2c(c1NC(=O)c1cccc(Cl)c1)CS(=O)(=O)C2 | -4.42
O=C(N/N=C/c1ccc([N+](=O)[O-])o1)c1cc2ccccc2o1 | -42.1
Cc1ccc(C(=O)NCC(C)NC(=O)c2ccc(C)c([N+](=O)[O-])c2)cc1[N+](=O)[O-] (stereo not drawn) | 7.96
CC(C)(C)C1CCC(=NNC(=O)CC(=O)NCc2ccccc2)CC1 (stereo not drawn) | 1.84
C#CCOCCOCCOCCNc1nc(N2CCN(C(=O)[C@H](Cc3ccc(O)cc3)n3cc([C@@H](N)C(C)CC)nn3)CC2)nc(N2CCN(C(=O)[C@H](Cc3cc4ccccc4[nH]3)n3cc([C@@H](N)C(C)CC)nn3)CC2)n1.Cl (stereo partly drawn) | -0.883
COc1ccc(S(N)(=O)=O)cc1C(=O)NC1CCCc2ccccc21 (stereo not drawn) | 7.58
COc1ccc(C)cc1-n1nnnc1SCc1cc(=O)n2cc(C)ccc2n1 | -51.1
O=C(Nc1nc2ccccc2[nH]1)c1ccccc1 | 14.5
OCC1(CCOc2ccccc2)CCN(Cc2cn[nH]c2-c2ccccc2)CC1 | -74.4
COC(=O)Cn1cc(C#N)c2ccccc21 | 0.537
Cc1c(C2=CCN(S(=O)(=O)c3ccc(Br)cc3)CC2)c2ccccc2n1C | 13.9
CC(C)(C)Nc1nc(Oc2ccc(=O)[nH]n2)nc(N2CCOCC2)n1 | -9.07
CC(C)c1nc(CNC(=O)CCc2nnc(-c3ccsc3)o2)cs1 | -2.35
Cc1ccc(NC(=O)CSCC#N)cc1Cl | -3.66
S=c1[nH]nc(-c2cccnc2)n1/N=C/c1ccco1 | 4.27
O=C(CCCSc1nc(-c2ccco2)cc(C(F)(F)F)n1)NCc1cccs1 | -1.45
NC(=O)CC(NC(=O)Cc1ccc(Br)cc1)c1ccc(NCc2cc(F)ccc2F)c([N+](=O)[O-])c1 (stereo not drawn) | -6.46
COc1cc(NC(=O)c2cncc(-c3ccc(C#N)cc3)c2)cc(C(=O)Nc2cccc(C(F)(F)F)c2)c1 | 0.953
CC1CN(C(=O)C2(C)CC2(Cl)Cl)CC(C)O1 (stereo not drawn) | 5.62

SMILES | hERG current change (%, negative = inhibition) at 10uM [%]
CCOc1cccc(-c2c(C(=O)N/N=C/c3ccsc3)nnn2-c2nonc2N)c1 | 20.4
COCCN(CC(=O)Nc1cccc(C)c1C)C(=O)Cc1sc(C)nc1-c1ccc(F)cc1 | -2
Cc1noc(C)c1S(=O)(=O)N1CCC(C(=O)N2CCN(c3ccc(F)cc3)CC2)CC1 | -41.4
Cc1ccccc1NC(=O)Cc1nc(COC(=O)c2ccccn2)cs1 | -15.8
O=C(CN1CCCC1=O)NC1CCCc2c1cnn2-c1cc(F)cc(F)c1 (stereo not drawn) | 5.86
NC(=O)NC(=O)CSc1nc2sc(-c3ccccc3)cc2c(=O)n1-c1ccccc1 | 4.69
COCc1[nH][nH]c(=O)c1C=Nc1ccc(Oc2ccccc2)cc1 | -26.7
O=C(NC1CCCc2ccccc21)C1CCN(C(=O)c2sccc2-n2cccc2)CC1 (stereo not drawn) | -23
CCOc1ccc(C(=O)NCCN2CCCC2)cc1.Cl | -40.6
COc1cc(CNC(=O)CCCC(=O)c2ccccc2)cc(OC)c1OC | 10.8
Cc1ccc(NC(=O)/C=N/OCC(=O)NCc2ccccc2Cl)cc1 | 2.92
CCCOc1ccc(C(=O)Nc2ccc(N3CCN(C(C)=O)CC3)cc2)cc1 | 5.39
Cc1ccc(C(=O)c2c[nH]c(C(=O)NCc3cccnc3)c2)cc1 | -15
COc1ccc(N2CCC(CNC(=O)Nc3ccc(Cl)cc3)C2)cc1 (stereo not drawn) | 11.5
O=C(OCC(=O)N1CCCC1=O)c1ncc(Cl)c(Cl)c1Cl | 0.304
CCN(CC)S(=O)(=O)c1ccc(N2CCOCC2)c(NC(=O)c2ccc(C#N)cc2)c1 | -34.3
CCCCCn1c(=O)c(C(=O)Nc2ccccn2)c(O)c2ccccc21 | 26.4
CCOc1cc(C2NC(=O)NC(C)=C2C(=O)OCc2ccccc2)ccc1O (stereo not drawn) | -16.6
CCN(Cc1ccncc1)C(=O)CCc1nnc(CCc2ccccc2OC)o1 | -4.64
N#Cc1c(N)oc(-c2ccc3c(c2)OCO3)c1-c1ccc2c(c1)OCO2 | -6.64
O=C(CSc1n[nH]c(=O)n1-c1ccccc1)Nc1ccccc1 | 5.91
